According to the supplement of paper PMC10441789:
The list shows a part of the results. Antibody binding of pooled human sera (four to six donors per pool; dilution not stated) to peptides of the Trypanosoma cruzi antigen TSSA on microarrays. Quantile-normalised fluorescence in arbitrary units, mean of duplicate arrays; higher = more binding. No active / inactive call. The uninfected pools are read here as the healthy donors of the same country. The strongest signals lie near the top of the scale (about 60,000).

Assays:
Experiment in all cases: antibody binding signal (normalised fluorescence) (arbitrary fluorescence units); higher = stronger serum antibody binding to peptide
[1] = system: pooled sera of chronic Chagas disease patients, Argentina
Description: (§1)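 Microarray of 15-residue peptides over residues 30-55 of Trypanosoma cruzi TSSAII, each with 1 to 10 substitutions at naturally variable positions, probed with one serum pool per country.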

[2] = system: pooled sera of chronic Chagas disease patients, Bolivia
Description: as §1

[3] = system: pooled sera of chronic Chagas disease patients, Brazil
Description: as §1

[4] = system: pooled sera of chronic Chagas disease patients, Colombia
Description: as §1

[5] = system: pooled sera of chronic Chagas disease patients, Mexico
Description: as §1

[6] = system: pooled sera of chronic Chagas disease patients, USA
Description: as §1

[7] = system: pooled sera of uninfected people, Argentina
Description: as §1

[8] = system: pooled sera of uninfected people, Bolivia
Description: as §1

[9] = system: pooled sera of uninfected people, Brazil
Description: as §1

[10] = system: pooled sera of uninfected people, Colombia
Description: as §1

[11] = system: pooled sera of uninfected people, Mexico
Description: as §1

[12] = system: pooled sera of uninfected people, USA
Description: as §1

Sequence | antibody binding signal [1] | antibody binding signal [2] | antibody binding signal [3] | antibody binding signal [4] | antibody binding signal [5] | antibody binding signal [6] | antibody binding signal [7] | antibody binding signal [8] | antibody binding signal [9] | antibody binding signal [10] | antibody binding signal [11] | antibody binding signal [12]
ISTPPSGKDKKTAAG | 6370 | 492 | 549 | 581 | 28100 | 514 | 147 | 330 | 116 | 136 | 84.5 | 162
PPSGKEKKAATGEAP | 20900 | 14400 | 13300 | 2410 | 3150 | 18500 | 656 | 589 | 113 | 350 | 114 | 179
GTENKPAAGETPSPP | 42700 | 3540 | 19600 | 1180 | 3360 | 5250 | 324 | 1170 | 227 | 182 | 167 | 335
KDKKTATGGAPSQSG | 475 | 194 | 242 | 697 | 305 | 265 | 203 | 108 | 92.5 | 77.9 | 94.7 | 101
TPPSGKENKAATGEA | 11700 | 13200 | 4970 | 532 | 2200 | 5530 | 1890 | 1470 | 316 | 1150 | 175 | 272
TEKKPAAGGTPSQSG | 1030 | 172 | 367 | 5520 | 501 | 1860 | 180 | 184 | 2230 | 146 | 263 | 1200
GKEKKAATGETPSPS | 7450 | 798 | 4130 | 6120 | 7270 | 10600 | 254 | 101 | 83.6 | 212 | 95.6 | 921
KEKKAAAGETPSQPG | 248 | 500 | 20600 | 143 | 122 | 1660 | 116 | 96.3 | 136 | 179 | 89.2 | 156
KENKPAAGETPSQPG | 1670 | 983 | 39500 | 359 | 527 | 4840 | 182 | 773 | 210 | 370 | 172 | 130
PPSGTEKKAAAGETP | 26800 | 11200 | 15500 | 705 | 1480 | 3290 | 855 | 435 | 278 | 532 | 231 | 214
PPSGTEKKTATGETP | 20900 | 10900 | 15000 | 462 | 827 | 6680 | 867 | 292 | 314 | 149 | 143 | 212
KDKKPATGETPSPPG | 22400 | 2460 | 21200 | 131 | 112 | 18600 | 146 | 141 | 105 | 104 | 388 | 473
KDKKTAAGEAPSQSG | 218 | 1960 | 477 | 243 | 201 | 2800 | 131 | 103 | 99 | 253 | 80.5 | 108
PPSGKEKKAAAGETP | 1350 | 623 | 2550 | 1950 | 3930 | 3460 | 399 | 564 | 83.5 | 315 | 96.8 | 133
ISTPPSGTDNKTAAG | 47800 | 43200 | 47100 | 2130 | 29700 | 21700 | 1220 | 672 | 2000 | 310 | 297 | 283
PPSGTDKKTATGETP | 3850 | 8980 | 17600 | 2810 | 13600 | 6220 | 400 | 270 | 237 | 452 | 721 | 187
PSGTEKKTATGETPS | 5980 | 3380 | 3840 | 1400 | 959 | 8420 | 380 | 378 | 331 | 208 | 183 | 369
KEKKAATGGTPSPSG | 454 | 256 | 130 | 428 | 300 | 591 | 140 | 78.7 | 202 | 278 | 79.6 | 105
TPPSGKDKKPAAGGA | 11900 | 597 | 2760 | 909 | 46100 | 1010 | 454 | 269 | 241 | 203 | 91.2 | 162
TPPSGTDNKTATGET | 38300 | 33700 | 39600 | 1110 | 11200 | 7770 | 447 | 412 | 341 | 225 | 127 | 133
KEKKTAAGGTPSPSG | 258 | 189 | 149 | 3210 | 189 | 1490 | 94.5 | 85.1 | 647 | 159 | 105 | 110
GTDKKPAAGEAPSPP | 383 | 792 | 19000 | 4950 | 561 | 15000 | 110 | 227 | 139 | 137 | 515 | 75.2
KDNKAAAGGAPSQPG | 272 | 310 | 5200 | 1320 | 161 | 240 | 394 | 2210 | 130 | 160 | 80.1 | 121
PPSGTDKKAAAGGAP | 9070 | 1680 | 23900 | 8340 | 33500 | 1360 | 486 | 251 | 188 | 428 | 1670 | 295
PSGTDNKTATGGTPS | 13300 | 9680 | 39300 | 923 | 784 | 1310 | 260 | 755 | 1950 | 340 | 337 | 324

Sequence | antibody binding signal [1] | antibody binding signal [2] | antibody binding signal [3] | antibody binding signal [4] | antibody binding signal [5] | antibody binding signal [6] | antibody binding signal [7] | antibody binding signal [8] | antibody binding signal [9] | antibody binding signal [10] | antibody binding signal [11] | antibody binding signal [12]
ISTPPSGKDNKTAAG | 23800 | 1660 | 3140 | 1160 | 31900 | 3170 | 284 | 420 | 161 | 250 | 101 | 190
DKKPAAGGTPSQPGA | 443 | 224 | 684 | 4850 | 394 | 1030 | 287 | 169 | 1660 | 252 | 298 | 286
GKEKKPATGETPSPS | 27900 | 3070 | 18800 | 3170 | 5820 | 20800 | 166 | 172 | 93.9 | 118 | 610 | 893
TEKKAATGGTPSQPG | 934 | 418 | 1250 | 2360 | 1290 | 2620 | 475 | 159 | 817 | 1370 | 559 | 259
TISTPPSGTDNKAAT | 37300 | 44100 | 50200 | 1330 | 9750 | 16800 | 964 | 701 | 1640 | 167 | 289 | 343
EKKPATGGTPSQSGA | 1620 | 406 | 581 | 2090 | 784 | 397 | 412 | 658 | 1130 | 232 | 222 | 688
GTDKKPAAGGTPSPP | 398 | 383 | 1160 | 9790 | 523 | 1120 | 151 | 391 | 1600 | 326 | 503 | 192
SGTEKKTAAGGAPSP | 423 | 217 | 661 | 9270 | 1500 | 1510 | 189 | 388 | 147 | 214 | 293 | 167
KDNKTATGEAPSQPG | 17200 | 20800 | 41900 | 2270 | 302 | 22700 | 480 | 197 | 273 | 278 | 98.7 | 185
TENKAAAGETPSPSG | 35800 | 363 | 6900 | 272 | 255 | 3120 | 167 | 202 | 198 | 108 | 300 | 2390
TSSTPPSGTDKKAAT | 34400 | 5830 | 36700 | 8180 | 40900 | 6520 | 706 | 134 | 160 | 215 | 1450 | 239
GTEKKTATGGAPSQP | 2140 | 299 | 1600 | 2530 | 1390 | 1270 | 361 | 634 | 139 | 109 | 232 | 151
TDKKAAAGEAPSQSG | 1040 | 10400 | 9980 | 436 | 267 | 9490 | 102 | 247 | 150 | 116 | 155 | 179
DKKAATGGTPSPSGA | 600 | 556 | 288 | 2620 | 600 | 1170 | 298 | 100 | 958 | 1110 | 85.1 | 178
SSTPPSGKEKKTATG | 10000 | 220 | 277 | 422 | 24500 | 802 | 302 | 217 | 83.1 | 222 | 116 | 136
GTDKKTAAGGAPSPP | 179 | 277 | 198 | 7300 | 566 | 917 | 145 | 191 | 118 | 277 | 260 | 145
GKEKKTAAGGAPSPS | 541 | 309 | 209 | 4220 | 845 | 861 | 133 | 98.3 | 108 | 179 | 143 | 129
PSGTDNKAAAGGAPS | 14100 | 3430 | 45800 | 2510 | 2110 | 951 | 238 | 696 | 1660 | 350 | 287 | 300
GTENKTATGGAPSPS | 27500 | 1230 | 1010 | 1290 | 1450 | 958 | 349 | 467 | 410 | 217 | 492 | 153
GTDKKPATGETPSQP | 32000 | 17900 | 42800 | 5980 | 555 | 23600 | 247 | 455 | 451 | 238 | 2080 | 162
STPPSGKDKKAAAGE | 11100 | 1490 | 4100 | 438 | 35600 | 1790 | 423 | 353 | 99.1 | 175 | 94 | 85.1
NKAAAGETPSQSGAS | 271 | 3410 | 17600 | 211 | 192 | 352 | 456 | 944 | 358 | 480 | 682 | 812
TDKKAATGEAPSPSG | 19500 | 30600 | 23200 | 218 | 350 | 23000 | 477 | 105 | 229 | 598 | 155 | 212
DNKPAAGGTPSPPGA | 181 | 519 | 494 | 1350 | 219 | 210 | 179 | 614 | 1180 | 547 | 356 | 126
STPPSGTENKAATGG | 55900 | 51100 | 53700 | 459 | 8130 | 43000 | 3600 | 707 | 396 | 965 | 303 | 698
